# Source: the supplement of paper PMC10126150
# Sequences with one replicate were seen in a single cluster, so their values are uncertain.
# Test system: ATP
# Assay: switch fluorescence ratio, 500 uM ATP over buffer (Cy3 cluster intensity, sum of 5 cycles each) (fold (ratio)); higher = stronger signal-on switching upon ATP binding; sequences stand for … in TCGTCGGCAGCGTCAGATGTGTATAAGAGACAGTTTTTTTTTTTTTTTTTTTTTTTTT…TC
# Conditions: aptamer strand: ATP DNA aptamer (quencher-CACCTGGGGGAGTATTGCGGAGGAAGG + anchor), 100 nM annealed; ATP concentration: 500 uM; one replicate
# Summary of the method: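 Clusters carrying Cy3-labelled switching strands on a modified Illumina MiSeq flow-cell were annealed to 100 nM quencher-labelled ATP aptamer and imaged in selection buffer. They were imaged again after 15 min with 500 uM ATP at 22 °C, over five buffer/ATP cycles with NaOH stripping and re-annealing in between. For each cluster, the fluorescence ratio is the summed Cy3 intensity of the target cycles divided by that of the buffer cycles, averaged per switch-domain sequence. Clusters outside 100-1000 RFU were left out.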
# 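Also: ATP exposure 15 min at 22 °C before imaging.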
row,Sequence,switch fluorescence ratio
1,CGTCTATAAC,1.31
2,CAAACGCCTC,1.84
3,GTGGGGTTCT,0.919
4,CAATTGTTAA,0.992
5,AAGAAAACC,1.82
6,TGGCTGAAAG,1.02
7,TAGGCAAAG,1.12
8,CGTAGCGGCT,1.11
9,GTAGGGGAAT,1.02
10,ATTTTTGTGT,0.987
11,TTTCTCTCCT,1.55
12,ATGTGCGGGT,0.969
13,TTGAAAGTCC,1.31
14,ATCTGTCGAT,1.01
15,GTGTGTTGGA,1.06
16,CAGCAATTTG,1.26
17,TGGGCAGCAA,1.33
18,GGAATGCGAG,1.16
19,AAGGGATAA,0.998
20,GGAGTGGCAT,0.967
21,GACGCGCCTC,1.8
22,GACACCTGAC,2.3
23,GCAAAGGTAT,0.968

row,Sequence,switch fluorescence ratio
1,GCGGGATTGA,1.04
2,TGCACTAGTG,1.05
3,GCCACGTTTA,0.99
4,TATTTTAACA,1.09
5,CAATTCTCGG,1.04
6,GGCACTCAAG,1
7,GCAACGGTCA,1.03
8,GTCCCGCAGT,4.29
9,GACTTCATAG,1
10,CGGGGATAA,1.03
11,ATCTTAGTGT,0.996
12,GCCGGTGGGG,1.04
13,GAGGGTGGAG,1.03
14,TTAATTG,0.972
15,TGGCATTGCT,0.991
16,CGGTATTTTC,1.09
17,AAATTGTCAG,1.01
18,CTAGGTGCAT,1.25
19,AGGCTAGTGT,1.02
20,ATGACAACCC,1.03
21,AATAACGCGG,0.964
22,AGGTATGTA,0.962
23,CTCGCCTATC,1.18

row,Sequence,switch fluorescence ratio
1,ATATGGACTA,1.01
2,CTACCGTGAC,1.93
3,AGAGTTATCA,0.999
4,AATCGGGGAA,0.996
5,ACTCGTTCCG,1.01
6,TCCAACGGT,1.09
7,AGGAGGCATC,1.02
8,CTAGGTGCGG,1
9,TTATTTGCC,1.04
10,ATCCCTTAAG,0.978
11,TAGCATTGA,1.01
12,CTTAAACACC,1.08
13,TAGTAACTAT,1.01
14,GTGTTGTGAT,0.95
15,GAGAGAGCTA,0.986
16,GACTTGCAG,1.07
17,CCGGATGATA,1.06
18,CAGTACATTC,1.05
19,GCAATGCGTT,1.94
20,ACAGCCATCC,1.32
21,TCTGTCCAAT,1.06
22,GCGTGCAAAA,0.935
23,TTCTATTAGG,0.993

row,Sequence,switch fluorescence ratio
1,GATACGACG,1.04
2,GGGGAACACG,1.03
3,GTGGCGTCCG,0.976
4,CGAACCCTGG,1.48
5,ATACAGAT,1.02
6,ATCCTTTTTG,1.02
7,CCATTTGAAT,0.994
8,GGTAGGGTCC,0.946
9,TCAAAGTGTG,1.05
10,GTAGGGCGGA,0.987
11,TAGTGGGGG,0.984
12,ACACATCTAC,1.23
13,AGTATCGTTT,1.01
14,TGAGACGCGT,0.964
15,CTGGTTGGTT,1.02
16,GAGCGAGCAA,1.4
17,TGCAGCCTTA,0.986
18,TGCAGGCGCT,0.986
19,GTTTGTTCTG,0.972
20,ATCCGTATGA,1.04
21,ACCGGTCTGT,1
22,AACTTAATAA,1.09
23,GGGACAGAAA,1.09

row,Sequence,switch fluorescence ratio
1,AGCTGACACT,1.03
2,GGGCAACAGC,1.06
3,CAGCGTCTCA,1.01
4,CTTCAATGAC,1.22
5,TAACGGAAAT,1.28
6,GGAAATTATG,0.979
7,TAGGGATTC,1.02
8,ACGAGAACGC,1.05
9,TGGAATTTTG,1
10,CCCGCTGTCT,1.07
11,ACCGTGATGA,0.996
12,CTGTACGCTC,2.15
13,ACACGAAT,1.03
14,CACCCTGACA,1.06
15,GTGATTTAGC,0.962
16,ATATCGTGGG,0.939
17,ACATATTGTC,0.968
18,GATATTAGGG,1.03
19,TCTTTCATGG,0.981
20,GTTCACGTTG,0.988
21,GCTAGGTTGC,0.983
22,GTACGGGCTG,0.967
23,ATTCGGGAGT,0.993

row,Sequence,switch fluorescence ratio
1,CGGAAAGGCG,1.03
2,AAGCGGGACC,1.02
3,TTCACTACTC,1.18
4,AAAATCCAGC,0.965
5,AACGCAAAAT,1.79
6,TGGTACGCGA,1.35
7,CAAAAAACGC,1.01
8,AACGGGTACT,1.14
9,CCAGAATTTT,1.02
10,GACAGTATA,1.07
11,GGTACTCCAA,1.05
12,TTCCACTGGA,1.03
13,CATAGGATTA,0.979
14,TTAGAATCGT,1.03
15,TTCTAACGTT,0.996
16,GAAGTTGAAA,0.993
17,TGCGTTAGGG,1.01
18,AAGTTAACCG,1.01
19,TCCACTCGAC,1.18
20,AGGTTAGGTC,0.993
21,AGGTCACCTT,1
22,CCCTGGCAGA,1.11
23,AAGACGTCGA,1.03

row,Sequence,switch fluorescence ratio
1,TAACTTTATG,0.969
2,GTGATCCCTG,0.984
3,GCGACCTAAT,1.06
4,ACCGGTTTAT,1.02
5,GACAGAGCTA,1.43
6,CTATGGCCCG,0.938
7,GCACAGCCGT,1.03
8,CGACTGATTC,1.08
9,GGAGTAACGG,0.976
10,TACCTCCAGT,1.07
11,AATAGAGAGG,0.976
12,CACATTGTT,0.969
13,CGTCATATTC,1.19
14,GGACCACTGT,1.04
15,AGTGCGCTTA,0.965
16,TATCCTCGG,1.07
17,GCAGGCATCG,0.974
18,ATTCTACATC,1.02
19,GGAAGGCATT,1.01
20,GGTCGCGTTG,1.02
